Measurements taken from ChEMBL document CHEMBL4346670, “Discovery of Novel Janus Kinase (JAK) and Histone Deacetylase (HDAC) Dual Inhibitors for the Treatment of Hematological Malignancies” (J Med Chem, 2019).

Experiments:
[1] = biological target: Serine/threonine-protein kinase BRSK1 (Homo sapiens) (UniProt Q8TDC3); assay: Inhibition of recombinant human BRSK1 at 20 nM using CREBtide as substrate measured after 90 mins by LANCE assay relative to control
Outline: (§1)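 Single-concentration screen within an 85-kinase panel run by a contract lab, with each compound tested at 20 nM and 200 nM. Human recombinant enzymes were used. Activity was quantified as phosphorylation of a peptide substrate read by LANCE time-resolved detection, and inhibition was expressed relative to control, using the same format as the JAK assay.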

[2] = biological target: Homeodomain-interacting protein kinase 2 (Homo sapiens) (UniProt Q9H2X6); assay: Inhibition of recombinant human HIPK2 at 200 nM using Ulight-CFFKNIVTPRTPPPSQGK-amide as substrate measured after 30 mins by LANCE method relative to control
Sequence of UniProt Q9H2X6 (Q9H2X6 whole entry, looked up): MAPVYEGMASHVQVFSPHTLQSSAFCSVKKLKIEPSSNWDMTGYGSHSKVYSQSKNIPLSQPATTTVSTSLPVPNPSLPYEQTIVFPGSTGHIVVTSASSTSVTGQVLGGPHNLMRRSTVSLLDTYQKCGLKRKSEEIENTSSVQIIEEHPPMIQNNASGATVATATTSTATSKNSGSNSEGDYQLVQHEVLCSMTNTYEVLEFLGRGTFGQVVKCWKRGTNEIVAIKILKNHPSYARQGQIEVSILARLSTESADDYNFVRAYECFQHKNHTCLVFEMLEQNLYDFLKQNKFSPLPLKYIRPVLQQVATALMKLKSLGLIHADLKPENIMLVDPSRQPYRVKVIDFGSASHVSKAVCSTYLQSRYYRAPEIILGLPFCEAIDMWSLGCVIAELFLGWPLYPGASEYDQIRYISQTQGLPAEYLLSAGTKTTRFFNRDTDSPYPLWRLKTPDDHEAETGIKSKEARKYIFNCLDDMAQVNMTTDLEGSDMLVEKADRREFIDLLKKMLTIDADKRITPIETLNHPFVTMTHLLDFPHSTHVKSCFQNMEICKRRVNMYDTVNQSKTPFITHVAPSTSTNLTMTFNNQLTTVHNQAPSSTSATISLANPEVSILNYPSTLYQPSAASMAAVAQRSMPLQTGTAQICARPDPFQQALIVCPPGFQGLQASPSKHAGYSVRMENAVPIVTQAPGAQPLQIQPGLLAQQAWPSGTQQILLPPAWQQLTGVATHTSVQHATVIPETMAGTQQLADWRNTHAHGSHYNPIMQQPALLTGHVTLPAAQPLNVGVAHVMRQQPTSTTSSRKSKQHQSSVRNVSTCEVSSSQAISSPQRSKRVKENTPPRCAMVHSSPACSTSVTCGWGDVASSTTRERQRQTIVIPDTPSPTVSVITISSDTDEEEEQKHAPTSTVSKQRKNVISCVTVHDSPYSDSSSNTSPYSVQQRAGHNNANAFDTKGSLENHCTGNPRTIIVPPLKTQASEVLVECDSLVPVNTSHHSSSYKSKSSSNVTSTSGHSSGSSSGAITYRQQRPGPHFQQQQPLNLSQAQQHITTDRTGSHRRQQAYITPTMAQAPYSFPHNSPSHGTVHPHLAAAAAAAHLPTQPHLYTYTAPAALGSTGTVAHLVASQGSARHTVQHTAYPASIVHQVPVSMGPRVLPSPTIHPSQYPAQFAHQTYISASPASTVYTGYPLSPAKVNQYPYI
Outline: (§2)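 Part of an 85-kinase selectivity panel run by a contract lab, with the test compound at 20 nM and at 200 nM. Each human recombinant kinase's phosphorylation of its peptide substrate was measured following the JAK assay method. Activity is given as percent inhibition.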

[3] = biological target: Platelet-derived growth factor receptor beta (Homo sapiens) (UniProt P09619); assay: Inhibition of recombinant human PDGFRbeta at 20 nM using Ulight-Poly GAT[EAY(1:1:1)] as substrate measured after 30 mins by LANCE method relative to control; outline: as §2
[4] = biological target: Serine/threonine-protein kinase N1 (Homo sapiens) (UniProt Q16512); assay: Inhibition of recombinant human PKN1 at 200 nM using CREBtide as substrate measured after 15 mins by LANCE assay relative to control
Sequence of UniProt Q16512 (Q16512 whole entry, looked up): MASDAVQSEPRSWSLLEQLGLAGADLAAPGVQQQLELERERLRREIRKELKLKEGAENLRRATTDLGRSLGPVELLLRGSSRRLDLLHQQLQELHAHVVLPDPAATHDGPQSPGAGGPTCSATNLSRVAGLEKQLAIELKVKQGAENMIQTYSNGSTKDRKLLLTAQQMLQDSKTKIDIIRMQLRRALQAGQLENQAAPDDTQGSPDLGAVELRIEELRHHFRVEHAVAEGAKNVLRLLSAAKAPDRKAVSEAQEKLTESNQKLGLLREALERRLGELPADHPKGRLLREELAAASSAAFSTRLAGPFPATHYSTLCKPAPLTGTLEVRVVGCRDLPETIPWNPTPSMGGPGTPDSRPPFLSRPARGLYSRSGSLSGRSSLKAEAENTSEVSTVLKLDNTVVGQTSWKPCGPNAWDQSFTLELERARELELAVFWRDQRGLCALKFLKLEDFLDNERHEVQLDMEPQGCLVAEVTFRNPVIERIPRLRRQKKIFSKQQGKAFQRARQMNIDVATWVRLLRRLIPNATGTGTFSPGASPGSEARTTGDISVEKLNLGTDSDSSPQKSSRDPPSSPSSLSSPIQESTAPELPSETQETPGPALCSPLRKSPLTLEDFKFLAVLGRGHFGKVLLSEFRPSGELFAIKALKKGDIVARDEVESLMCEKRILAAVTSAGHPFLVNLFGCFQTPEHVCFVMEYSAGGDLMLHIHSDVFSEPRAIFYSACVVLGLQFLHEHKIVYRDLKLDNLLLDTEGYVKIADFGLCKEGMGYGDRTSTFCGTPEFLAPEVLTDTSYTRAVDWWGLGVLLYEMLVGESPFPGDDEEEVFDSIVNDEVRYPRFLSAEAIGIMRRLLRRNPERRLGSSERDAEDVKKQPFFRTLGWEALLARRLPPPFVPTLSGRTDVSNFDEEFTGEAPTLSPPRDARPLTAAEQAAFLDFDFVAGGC

[5] = biological target: Fibroblast growth factor receptor 1 (Homo sapiens) (UniProt P11362); assay: Inhibition of recombinant human FGFR1 at 20 nM using Ulight-CAGAGAIETDKEYYTVKD as substrate measured after 60 mins by LANCE method relative to control; outline: as §1
[6] = biological target: Serine/threonine-protein kinase ULK1 (Homo sapiens) (UniProt O75385); assay: Inhibition of recombinant human ULK1 at 20 nM using Ulight-FLGFTYVAP as substrate measured after 60 mins by LANCE method relative to control
[7] = biological target: Non-receptor tyrosine-protein kinase TYK2 (Homo sapiens, UniProt P29597); assay: Inhibition of recombinant human TYK2 at 20 nM using Ulight-CAGAGAIETDKEYYTVKD as substrate measured after 60 mins by LANCE method relative to control
Sequence of UniProt P29597 (P29597 whole entry): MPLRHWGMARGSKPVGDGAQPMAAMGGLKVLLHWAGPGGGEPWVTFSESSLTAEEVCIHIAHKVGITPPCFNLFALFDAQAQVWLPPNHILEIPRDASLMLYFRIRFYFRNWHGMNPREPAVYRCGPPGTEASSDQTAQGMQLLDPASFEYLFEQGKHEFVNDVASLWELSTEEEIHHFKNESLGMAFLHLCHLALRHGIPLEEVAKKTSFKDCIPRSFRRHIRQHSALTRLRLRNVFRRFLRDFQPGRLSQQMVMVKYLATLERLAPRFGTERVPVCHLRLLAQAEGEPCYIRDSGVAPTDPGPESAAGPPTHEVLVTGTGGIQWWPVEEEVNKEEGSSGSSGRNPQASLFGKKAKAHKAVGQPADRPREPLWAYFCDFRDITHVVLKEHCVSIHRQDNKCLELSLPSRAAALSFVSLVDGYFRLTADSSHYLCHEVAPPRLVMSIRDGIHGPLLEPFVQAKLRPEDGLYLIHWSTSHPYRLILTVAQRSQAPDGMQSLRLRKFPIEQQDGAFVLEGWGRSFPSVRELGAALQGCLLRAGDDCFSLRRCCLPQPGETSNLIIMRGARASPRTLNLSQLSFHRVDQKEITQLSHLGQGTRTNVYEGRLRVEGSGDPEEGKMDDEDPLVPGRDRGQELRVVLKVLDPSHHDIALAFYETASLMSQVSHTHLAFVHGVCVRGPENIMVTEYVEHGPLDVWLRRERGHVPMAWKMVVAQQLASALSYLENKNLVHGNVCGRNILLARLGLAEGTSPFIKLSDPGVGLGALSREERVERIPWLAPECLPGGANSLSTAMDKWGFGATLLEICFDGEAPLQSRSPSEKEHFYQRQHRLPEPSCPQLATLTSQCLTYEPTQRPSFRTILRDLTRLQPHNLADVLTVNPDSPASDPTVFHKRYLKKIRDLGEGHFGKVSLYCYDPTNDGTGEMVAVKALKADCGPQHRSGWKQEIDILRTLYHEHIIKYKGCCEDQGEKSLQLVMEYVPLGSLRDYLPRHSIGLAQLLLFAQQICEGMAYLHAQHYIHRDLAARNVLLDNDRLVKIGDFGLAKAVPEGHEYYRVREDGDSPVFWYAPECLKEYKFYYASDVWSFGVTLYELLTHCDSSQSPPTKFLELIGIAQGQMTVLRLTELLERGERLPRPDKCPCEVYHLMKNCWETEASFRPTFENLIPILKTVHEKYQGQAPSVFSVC

[8] = biological target: Serine/threonine-protein kinase TBK1 (Homo sapiens) (UniProt Q9UHD2); assay: Inhibition of recombinant human TBK1 at 200 nM using Ulight-FLGFTYVAP as substrate measured after 15 mins by LANCE method relative to control
[9] = biological target: Vascular endothelial growth factor receptor 2 (Homo sapiens) (UniProt P35968); assay: Inhibition of recombinant human VEGFR2 at 200 nM using Ulight-CAGAGAIETDKEYYTVKD as substrate measured after 60 mins by LANCE method relative to control
[10] = biological target: Ribosomal protein S6 kinase alpha-4 (Homo sapiens) (UniProt O75676); assay: Inhibition of recombinant human MSK2 at 200 nM using biotinyl-beta amyloid-beta amyloid-beta AAAARARTSSFAEPG after 15 mins by HTRF method relative to control
[11] = biological target: Mitogen-activated protein kinase 3 (Homo sapiens) (UniProt P27361); assay: Inhibition of recombinant human ERK1 at 20 nM using Ulight-CFFKNIVTPRTPPPSQGK-amide as substrate measured after 30 mins by LANCE method relative to control; outline: as §1
[12] = test system: HEL; assay: Induction of apoptosis in HEL cells assessed as necrotic apoptotic cells at 0.5 uM after 24 hrs by Annexin-V/propidium iodide staining-based flow cytometric analysis (reference value: 0.011%); assay type: functional, Homo sapiens
[13] = biological target: Serine/threonine-protein kinase BRSK1 (Homo sapiens) (UniProt Q8TDC3); assay: Inhibition of recombinant human BRSK1 at 200 nM using CREBtide as substrate measured after 90 mins by LANCE assay relative to control; outline: as §1
[14] = Toxicity in BALB/c nu mouse xenografted with HEL cells assessed as injury to internal organs at 100 mg/kg/day, ip administered for 16 days and measured post-last dose; assay type: organism-based; settings: in vivo, 384 h
[15] = biological target: Protein-tyrosine kinase 6 (Homo sapiens) (UniProt Q13882); assay: Inhibition of recombinant human BRK at 200 nM using Ulight-TK peptide as substrate measured after 90 mins by LANCE assay relative to control; outline: as §1
[16] = biological target: Aurora kinase A (Homo sapiens) (UniProt O14965); assay: Inhibition of recombinant human AurA at 200 nM using Ulight-RRRSLLE peptide as substrate measured after 15 mins by LANCE assay relative to control; outline: as §1
Sequence of UniProt O14965 (O14965 whole entry): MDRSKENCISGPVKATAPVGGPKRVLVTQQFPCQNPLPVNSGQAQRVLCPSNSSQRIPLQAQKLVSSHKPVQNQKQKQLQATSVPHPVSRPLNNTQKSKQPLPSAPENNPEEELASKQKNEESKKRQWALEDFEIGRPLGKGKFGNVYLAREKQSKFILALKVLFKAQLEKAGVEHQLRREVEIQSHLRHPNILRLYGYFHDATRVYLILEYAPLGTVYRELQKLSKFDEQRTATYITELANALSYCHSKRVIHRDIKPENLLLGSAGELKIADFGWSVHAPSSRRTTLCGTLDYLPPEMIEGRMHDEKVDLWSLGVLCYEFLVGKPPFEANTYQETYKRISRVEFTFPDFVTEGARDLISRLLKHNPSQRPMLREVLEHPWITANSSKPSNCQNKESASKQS

[17] = Drug level in plasma of BALB/c nu mouse xenografted with HEL cells at 100 mg/kg/day, ip administered for 5 days and measured after 0.5 to 4 hrs by LC-MS/MS analysis; assay type: ADME, organism-based; settings: in vivo
Outline: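 HEL-xenografted male BALB/c-nu mice dosed IP at 100 mg/kg/day for 5 days. Sacrificed 0.5, 1.0 and 4.0 h after the last dose. Plasma separated and stored at -80 °C. Tumors homogenized in normal saline (5:1 v/w) and sonicated. Samples deproteinized with methanol containing internal standard, centrifuged, diluted in methanol/acetonitrile and recentrifuged.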

[18] = biological target: Insulin receptor-related protein (Homo sapiens) (UniProt P14616); assay: Inhibition of recombinant human IRR at 200 nM using Ulight-TK peptide as substrate measured after 30 mins by LANCE method relative to control; outline: as §2
[19] = biological target: Serine/threonine-protein kinase Nek2 (Homo sapiens) (UniProt P51955); assay: Inhibition of recombinant human NEK2 at 20 nM using Ulight-FLGFTYVAP as substrate measured after 60 mins by LANCE method relative to control; outline: as §2
[20] = species: Homo sapiens; assay: Inhibition of recombinant human AMPKalpha at 20 nM using ULight-CREB as substrate measured after 30 mins by LANCE assay relative to control
Outline: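 Part of an 85-kinase selectivity panel run by a contract lab. The test compound was screened at 20 nM and 200 nM against human recombinant kinases. Activity was quantified as phosphorylation of a ULight-labelled peptide substrate, read by LANCE detection. Percent inhibition was taken relative to control. The method is the same one used for JAKs.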

[21] = biological target: Mitogen-activated protein kinase 14 (Homo sapiens) (UniProt Q16539); assay: Inhibition of recombinant human P38alpha at 20 nM using Ulight-CFFKNIVTPRTPPPSQGK-amide as substrate measured after 30 mins by LANCE assay relative to control; outline: as §2
Sequence of UniProt Q16539 (Q16539 whole entry): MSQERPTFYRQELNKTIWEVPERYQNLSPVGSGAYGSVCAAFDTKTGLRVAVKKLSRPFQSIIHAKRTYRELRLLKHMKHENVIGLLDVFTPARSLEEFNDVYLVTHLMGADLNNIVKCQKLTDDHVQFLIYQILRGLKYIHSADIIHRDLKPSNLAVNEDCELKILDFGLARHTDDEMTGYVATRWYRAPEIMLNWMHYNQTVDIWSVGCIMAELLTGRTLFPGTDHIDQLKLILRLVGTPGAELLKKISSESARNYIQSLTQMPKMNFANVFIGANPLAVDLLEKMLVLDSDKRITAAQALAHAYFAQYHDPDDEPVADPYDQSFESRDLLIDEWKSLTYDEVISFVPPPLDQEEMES

[22] = biological target: Serine/threonine-protein kinase B-raf (Homo sapiens) (UniProt P15056); assay: Inhibition of recombinant human BRAF at 20 nM using inactive MEK as substrate measured after 30 mins by LANCE method relative to control
[23] = Oral bioavailability in Sprague-Dawley rat at 10 mg/kg by LC-MS/MS analysis; assay type: ADME, organism-based; settings: in vivo

Sequence of UniProt Q8TDC3 (Q8TDC3 whole entry): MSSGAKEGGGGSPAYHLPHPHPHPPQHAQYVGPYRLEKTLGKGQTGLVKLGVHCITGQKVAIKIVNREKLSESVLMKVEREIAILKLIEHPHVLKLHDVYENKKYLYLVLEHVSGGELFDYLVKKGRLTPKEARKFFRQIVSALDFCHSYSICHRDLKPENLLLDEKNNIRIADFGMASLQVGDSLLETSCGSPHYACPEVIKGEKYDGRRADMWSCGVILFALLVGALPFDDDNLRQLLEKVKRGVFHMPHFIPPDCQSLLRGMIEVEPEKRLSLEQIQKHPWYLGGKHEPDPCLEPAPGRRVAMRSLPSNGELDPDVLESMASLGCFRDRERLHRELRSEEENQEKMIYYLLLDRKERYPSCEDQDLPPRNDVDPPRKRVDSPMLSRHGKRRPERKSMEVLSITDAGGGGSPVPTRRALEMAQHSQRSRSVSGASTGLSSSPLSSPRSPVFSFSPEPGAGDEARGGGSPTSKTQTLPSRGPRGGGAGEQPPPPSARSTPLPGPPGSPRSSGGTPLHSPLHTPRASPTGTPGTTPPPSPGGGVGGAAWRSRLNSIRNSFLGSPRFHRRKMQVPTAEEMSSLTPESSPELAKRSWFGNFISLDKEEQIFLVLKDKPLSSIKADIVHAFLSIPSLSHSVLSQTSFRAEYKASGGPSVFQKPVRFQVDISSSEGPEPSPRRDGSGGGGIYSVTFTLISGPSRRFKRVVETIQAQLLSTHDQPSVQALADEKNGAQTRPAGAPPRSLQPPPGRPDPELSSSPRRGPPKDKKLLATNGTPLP

inhibition [1]: 3%
inhibition [2]: 48%
inhibition [3]: 20%
inhibition [4]: 33%
inhibition [5]: -3%
inhibition [6]: 3%
inhibition [7]: 4%
inhibition [8]: 47%
inhibition [9]: 96%
inhibition [10]: 17%
inhibition [11]: -10%
inhibition [13]: 19%
inhibition [15]: 14%
inhibition [16]: 89%
concentration [17]: 100 nM
inhibition [18]: 41%
inhibition [19]: 4%
inhibition [20]: 6%
inhibition [21]: 7%
inhibition [22]: 3%
bioavailability [23]: < 1%
SMILES: O=C(CCCCCn1cc(Nc2ncc(Cl)c(Nc3ccc(Cl)cc3)n2)cn1)NO
Activity [12]: 3.62%
Activity [14]: Non-Toxic
